In patent US9908927B2, “Single-chain trail-receptor agonist proteins” (AbbVie Inc., priority 2014, dated 2018):

What was measured:
Assay type in all cases: in vivo
[1] = test system: subcutaneous H460LM (non-small cell lung) xenograft tumors; assay: H460LM non-small cell lung xenograft model; conditions: SCID female mice, 0.3, 1, or 3 mkd dosed IV, QDx5 or IP, Q2Dx5 as indicated
Method: The effect of a TRAIL receptor agonist protein made up of two polypeptides having the amino acid sequence set forth in SEQ ID NO:19 on tumor growth was evaluated in subcutaneous Colo205 (colorectal), SKM-1 (acute myeloid leukemia), and H460LM (non-small cell lung) xenograft tumors implanted in SCID female mice (Charles Rivers Laboratories; Wilmington, Mass.). Briefly, human cancer cells were inoculated subcutaneously into the right hind flank of female SCID mice on study day 0. Administration of TRAIL receptor agonist protein of SEQ ID NO:19 (0.3, 1, or 3 mkd dosed IV, QDx5 or IP, Q2Dx5 as indicated) was initiated at the time of size match. Tumor volume was measured for the duration of the experiment until the mean tumor volume in each group reached an endpoint of >2000 mm^3 for Colo205 and SKM-1 or >2500 mm^3 for H460LM.

CTG-0293 (pancreatic) = assay: Patient-derived xenograft model CTG-0293; conditions: CTG-0293 (pancreatic) PDX, NSG female mice; 3 mkd dosed IP, Q2Dx5
Method: (§1) The effect of a TRAIL receptor agonist protein made up of two polypeptides having the amino acid sequence set forth in SEQ ID NO:19 on tumor growth was also evaluated in patient-derived xenograft models CTG-0069 (colorectal), CTG-0167 (NSCLC), CTG-0293 (pancreatic), CTG-0714 (sarcoma), CTG-0136 (esophageal), CTG-485 (gastric), and CTG-0785 (Ewing's sarcoma) implanted in NSG female mice (Champions Oncology; Hackensack, N.J.). Briefly, tumor fragments were propagated subcutaneously into the right hind flank of female NSG mice on study day 0. Administration of a TRAIL receptor agonist protein made up of two polypeptides having the amino acid sequence set forth in SEQ ID NO: 19 (3 mkd dosed IP, Q2Dx5) was initiated at the time of size match. Tumor volume was measured for the duration of the experiment until the mean tumor volume in each group reached an endpoint of >2000 mm^3 or 60 days.

CTG-485 (gastric) = assay: Patient-derived xenograft model CTG-485; conditions: CTG-485 (gastric) PDX, NSG female mice; 3 mkd dosed IP, Q2Dx5
Method: as §1

Measured: effect on tumor growth

B1: SEQ ID NO: 19: made up of two polypeptides of SEQ ID NO: 19; three hinge cysteines, N297S aglycosylated CH2, glycosites at positions 168 and 337 (protein)
chain: QRVAAHITGTRGRSNTLSSPNSKNEKALGRKINSWESSRSGHSFLSNLHLRNGELVIHEKGFYYIYSQTYFRFQEEIKENTKNDKQMVQYIYKYTSYPDPILLMKSARNSCWSKDAEYGLYSIYQGGIFELKENDRIFVSVTNEHLIDMDHEASFFGAFLVGGSGSGNGSRVAAHITGTRGRSNTLSSPNSKNEKALGRKINSWESSRSGHSFLSNLHLRNGELVIHEKGFYYIYSQTYFRFQEEIKENTKNDKQMVQYIYKYTSYPDPILLMKSARNSCWSKDAEYGLYSIYQGGIFELKENDRIFVSVTNEHLIDMDHEASFFGAFLVGGSGSGNGSRVAAHITGTRGRSNTLSSPNSKNEKALGRKINSWESSRSGHSFLSNLHLRNGELVIHEKGFYYIYSQTYFRFQEEIKENTKNDKQMVQYIYKYTSYPDPILLMKSARNSCWSKDAEYGLYSIYQGGIFELKENDRIFVSVTNEHLIDMDHEASFFGAFLVGGPGSSSSSSSG[human IgG1 Fc with N297S (EU numbers) not written out]
modifications: homodimer
significant tumor growth inhibition: all assays above
